Laboratory results reported in PubChem BioAssay AID485281 (National Center for Advancing Translational Sciences (NCATS), 2010).
Among all 350,000 compounds or so, about 260 (0.074%) were called active. Inconclusive means that the source gave no clear call. Such entries were picked first, then a sample of the others. The call rests on the fitted dose curve; in most records, active means well fitted inhibition curve with a large enough effect; inconclusive means small, poorly fitted or top-dose-only effect; inactive means no such curve, though single readings can be large or run the other way. Potencies of inconclusive entries are doubtful fits and often do not repeat.

What follows are molecules tested against Ferritin light chain (Equus caballus) (UniProt P02791) (assay: qHTS Assay for Identification of Novel General Anesthetics). Details: apoferritin/1-aminoanthracene competitive binding, fluorescence; activity change, negative = displacement: at 77.5 µM (top of the series).
Chain of UniProt P02791 (P02791 whole entry, looked up): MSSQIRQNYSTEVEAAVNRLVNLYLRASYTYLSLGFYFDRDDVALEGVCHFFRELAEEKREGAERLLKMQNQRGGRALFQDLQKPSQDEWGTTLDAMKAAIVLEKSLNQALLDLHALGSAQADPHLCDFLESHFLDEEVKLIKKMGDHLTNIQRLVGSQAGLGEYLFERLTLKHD
How it was run: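 Concentration-response curves derived by four-parameter Hill fitting of normalized fluorescence, where compounds displaced 1-AMA from 10 uM horse apoferritin following a brief 10 min room-temperature incubation; propofol titration acted as positive control.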
Further: nearly all actives have a fitted effect of over 20% in size.
On the % scale 0 is the no-effect control and ±100 the full control effect; potency means the concentration at half of the fitted maximal effect; tags describe the fitted curve by direction and shape.

| SMILES | activity change, negative = displacement | Potency |
| --- | --- | --- |
| Cn1c(-c2cc3c(C(F)(F)F)nn(C)c3s2)n[nH]c1=S | inactive: -9.5% | – |
| CS(=O)(=O)NCCC1=CCCCC1 | – | inconclusive: 22.4 µM [inhibitor, partial curve] |
| OCC1(CCc2ccccc2)CCN(Cc2ccccc2Cl)CC1 | inactive: -16.6% | – |
| NC(=S)N1OC[C@@H]2COc3ccc4ccccc4c3[C@@H]21 | – | inconclusive: 28.2 µM [inhibitor, partial curve] |
| Cn1cc(C(=O)N2CCCC(Nc3ccc(F)cc3)C2)c2ccccc21 (centres undefined) | – | inconclusive: 31.6 µM [inhibitor, single point] |
| C(=C1/CCCC2=C1Nc1ncnn1C2c1ccccc1)/c1ccccc1 (centres undefined) | – | inconclusive: 12.6 µM [inhibitor, partial curve] |
| O=C1c2ccccc2S(=O)(=O)N1CC(O)Cn1ccc2ccccc21 (centres undefined) | – | inconclusive: 39.8 µM [inhibitor, partial curve] |
| CC1Cc2ccccc2N1C(=O)COC(=O)c1cccnc1Cl (centres undefined) | – | inconclusive: 17.8 µM [inhibitor, partial curve] |
| COc1cc(NC(=O)c2sc3ncn(CC(=O)N4CCCC(C)C4)c(=O)c3c2C)cc(OC)c1OC (centres undefined) | – | inconclusive: 15.8 µM [inhibitor, partial curve] |
| CCc1ccc(NC(=O)CSc2nc(=O)n(Cc3ccccn3)c3c2CCC3)cc1 | – | inconclusive: 50.1 µM [inhibitor, single point] |
| COc1ccc(C2=NN(C(C#N)c3ccc(OC)c(OC)c3)C(c3ccccc3)C2)cc1 (centres undefined) | – | inconclusive: 35.5 µM [inhibitor, partial curve] |
| CC1CCCN(C(=O)CSc2c3c(nc4cc(Cl)ccc24)CCCC3)C1 (centres undefined) | – | inconclusive: 44.7 µM [inhibitor, partial curve] |
| Cc1cc(N2CCOCC2)ccc1/C=C\[N+](=O)[O-] | inactive: -8.81% | – |
| Nn1c(SCC(=O)Nc2ccc(F)cc2)nnc1C1CCCCC1 | – | inconclusive: 8.91 µM [inhibitor, partial curve] |
| CN(Cc1cccs1)C(=O)c1ccc(S(=O)(=O)N2CCCCC2)cc1 | – | inconclusive: 56.2 µM [inhibitor, single point] |
| CCOc1ccccc1-c1nc(CN2CCCN(C(=O)c3ccco3)CC2)c(C)o1 | inactive: -4.32% | – |
| O=C(CNC1CCN(Cc2ccccc2)CC1)Nc1ccc(S(=O)(=O)N2CCCCC2)cc1 | inactive: -10% | – |

| SMILES | activity change, negative = displacement | Potency |
| --- | --- | --- |
| CCC(CC)C(=O)N1CC(=O)Nc2ccc(F)cc2C1c1ccccc1 (centres undefined) | – | inconclusive: 10 µM [inhibitor, full curve] |
| COc1cc(/C(C)=N/NC(=O)CSc2nncn2C)ccc1OCc1ccccc1Cl | – | inconclusive: 25.1 µM [inhibitor, partial curve] |
| Cc1cc(N)n(-c2ccc(S(=O)(=O)c3ccc(C(C)C)cc3)cc2)n1 | – | inconclusive: 25.1 µM [inhibitor, partial curve] |
| CC(C)CC1(C)NC(=O)N(CC(=O)NC(=O)Nc2ccc3c(c2)OCCO3)C1=O (centres undefined) | – | inconclusive: 14.1 µM [inhibitor, partial curve] |
| COC(=O)c1c(C(=O)OC)c2n(c1C)CCC2 | – | inconclusive: 3.16 µM [inhibitor, full curve] |
| Cc1cc(C)c(NC(=O)c2sc3nc(C)cc(C)c3c2NC(=O)c2ccccc2)c(C)c1 | – | inconclusive: 14.1 µM [inhibitor, partial curve] |
| O=C(Nc1ccc(S(=O)(=O)N2CCCC2)cc1)c1c(F)cccc1F | – | inconclusive: 20 µM [inhibitor, partial curve] |
| O=C(NC12CC3CC(CC(C3)C1)C2)C1=COCCO1 | – | inconclusive: 44.7 µM [inhibitor, partial curve] |
| CCOC(=O)c1cccc(COC(=O)c2cccc(-c3nnc(-c4ccccc4)o3)c2)c1 | inactive: -2.82% | – |
| Cn1c(=O)c(C(=O)CSc2nncs2)c(N)n(Cc2ccccc2)c1=O | – | inconclusive: 50.1 µM [inhibitor, single point] |
| CCc1cc(OCCCSc2nc(C)cc(=O)[nH]2)ccc1Cl | – | inconclusive: 14.1 µM [inhibitor, partial curve] |
| Cc1ccc(S(=O)(=O)n2c(=O)oc3ccccc32)cc1 | – | inconclusive: 14.1 µM [inhibitor, partial curve] |
| Cc1cc(F)ccc1NCc1ccc([N+](=O)[O-])cc1 | – | inconclusive: 22.4 µM [inhibitor, partial curve, poor fit] |
| CCCCCC(=O)Nc1cccc(C2=NOC3(C2)C[C@@H](C(N)=O)N(C(=O)CC(c2ccccc2)c2ccccc2)C3)c1 (some centres undefined) | – | inconclusive: 15.8 µM [inhibitor, partial curve] |
| CCOC(=O)C(=CNc1ccc(C)cc1C)C(=O)OCC | inactive: 3.71% | – |
| Cc1nc(NCc2ccc3c(c2)OCO3)c2nnn(Cc3ccccc3)c2n1 | – | inconclusive: 5.01 µM [inhibitor, full curve] |
| COc1ccc(/C=N/NC(=O)CNC(=O)C2COc3ccccc3O2)cc1OC (centres undefined) | – | inconclusive: 28.2 µM [inhibitor, partial curve] |
